# Laboratory results as given in paper PMC4336329 (PLoS ONE, 2015).
# Screen size: about 310,000 compounds; about 14,000 (4.5%) showed an effect of 50% or more. Effects have a minus sign here. The list shows a part of the results.
# Biological target: human ether-à-go-go-related gene (hERG) potassium channel (human, UniProt Q12809)
# Experiment: primary screen, population patch clamp on CHO cells stably expressing hERG
# 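Further: peak tail current of the secondary pulse compared with the same well before compound.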
# Chain of human ether-à-go-go-related gene (hERG) potassium channel (Q12809 whole entry, looked up): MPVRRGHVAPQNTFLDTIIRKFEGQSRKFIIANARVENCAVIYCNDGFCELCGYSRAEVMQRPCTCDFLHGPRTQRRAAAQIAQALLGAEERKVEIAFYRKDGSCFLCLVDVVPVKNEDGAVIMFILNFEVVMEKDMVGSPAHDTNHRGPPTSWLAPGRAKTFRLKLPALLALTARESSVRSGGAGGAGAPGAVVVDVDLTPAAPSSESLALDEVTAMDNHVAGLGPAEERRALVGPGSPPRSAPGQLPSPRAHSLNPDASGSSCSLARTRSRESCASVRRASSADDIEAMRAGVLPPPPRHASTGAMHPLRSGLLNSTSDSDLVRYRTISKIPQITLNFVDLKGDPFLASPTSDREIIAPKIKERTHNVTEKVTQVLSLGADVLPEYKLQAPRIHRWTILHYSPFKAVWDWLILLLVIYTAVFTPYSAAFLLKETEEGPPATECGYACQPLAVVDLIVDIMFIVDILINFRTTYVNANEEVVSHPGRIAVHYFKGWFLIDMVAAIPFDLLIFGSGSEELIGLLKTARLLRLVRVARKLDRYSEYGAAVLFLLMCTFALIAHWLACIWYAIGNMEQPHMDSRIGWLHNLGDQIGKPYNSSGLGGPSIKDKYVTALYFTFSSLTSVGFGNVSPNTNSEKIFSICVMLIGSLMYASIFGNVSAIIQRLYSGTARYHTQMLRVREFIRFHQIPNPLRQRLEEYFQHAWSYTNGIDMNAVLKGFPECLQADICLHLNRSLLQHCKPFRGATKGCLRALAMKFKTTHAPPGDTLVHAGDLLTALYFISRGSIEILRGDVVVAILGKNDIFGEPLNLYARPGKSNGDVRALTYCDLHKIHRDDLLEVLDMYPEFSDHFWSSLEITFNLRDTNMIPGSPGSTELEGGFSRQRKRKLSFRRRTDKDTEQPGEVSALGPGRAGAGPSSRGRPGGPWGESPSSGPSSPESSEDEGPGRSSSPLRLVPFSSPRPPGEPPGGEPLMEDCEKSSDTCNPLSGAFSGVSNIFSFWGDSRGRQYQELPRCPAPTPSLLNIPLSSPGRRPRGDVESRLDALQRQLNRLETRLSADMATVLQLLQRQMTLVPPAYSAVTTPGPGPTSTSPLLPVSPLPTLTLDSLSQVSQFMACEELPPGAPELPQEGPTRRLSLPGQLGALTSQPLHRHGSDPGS
row,Compound,"hERG current change (%, negative = inhibition) at 10uM [%]"
1,CCN1CCN(C(=O)c2ccc3c(=O)n(C4CCCC4)c(=S)[nH]c3c2)CC1,-12.7
2,Cc1nn(-c2ccc(F)cc2)c2nc(N)c(C#N)c(-c3ccc(O)c(O)c3)c12,23.7
3,O=C(CSc1n[nH]c(=O)n1C1CC1)NCc1ccccc1,1.18
4,COc1ccc(CCNc2oc(-c3ccccc3OC)nc2C#N)cc1OC,-1.1
5,COc1ccccc1C(=O)Oc1ccc(C(C)C)cc1,-3.13
6,COc1ccc(/C=C(/NC(=O)c2ccco2)C(=O)N2CCCCC2)cc1,17.2
7,O=c1cc(N2CCN(Cc3ccccc3)CC2)c(-c2ccccc2)n[nH]1,-1.87
8,Cc1ncc(CO)c2cc(S(=O)(=O)c3ccc(F)cc3)c(=O)oc12,19.2
9,CC(C)CCn1c(CN2CCOCC2)nc2c1c(=O)n(C)c(=O)n2C,1.4
10,C=CCNc1ncnc2ccc(Br)cc12,3.72
11,Cc1nc(NCC2CCCO2)c2nnn(Cc3ccccc3)c2n1 (stereo not drawn),6.57
12,CCS(=O)(=O)c1ccc2oc(SCC(=O)NC3CCCC(C)C3C)nc2c1 (stereo not drawn),-38.8
13,CC1CN(C(C)C(=O)NC(c2ccccc2)c2ccccc2)CC(C)O1 (stereo not drawn),1.52
14,O=C(N/N=C1/CCCc2ccccc21)c1cc([N+](=O)[O-])cc([N+](=O)[O-])c1,16.6
15,c1csc(CNc2ncnc3sccc23)c1,-20.3
16,COc1ccc(N2CC(C(=O)Nc3nc4ccc(S(C)(=O)=O)cc4s3)CC2=O)cc1 (stereo not drawn),3.32
17,O=c1cc(N2CCN(Cc3ccccc3)CC2)[nH]c(=O)n1Cc1ccc(F)cc1,5.93
18,COc1ccccc1OCC(=O)OCc1cc(-c2ccco2)on1,8.5
19,NC(=O)c1ccc(CSc2nc3ccccc3s2)cc1,11.1

row,Compound,"hERG current change (%, negative = inhibition) at 10uM [%]"
1,Cc1ccc2nc(Cl)c(/C=N/NC(=O)c3ccccc3O)cc2c1,6.27
2,O=C(COC(=O)c1cnccn1)Nc1ccc(Cl)cc1,-4
3,O=C(NCCC1=CCCCC1)c1cc(COc2ccc(F)cc2Cl)on1,10.4
4,CCOc1ccc(N/C(SC)=C(/C#N)C(N)=O)cc1,4.98
5,Cc1cc(C)n(CC(O)CN2c3ccccc3Sc3ccccc32)n1 (stereo not drawn),9.03
6,O=C(Nc1cc(N2CCOCC2)ncn1)NC1(C(F)(F)F)Oc2ccc(Cl)cc2O1 (stereo not drawn),3.83
7,CC(=O)Nc1ccc(OCC(=O)c2ccc(C)cc2C)cc1,1.97
8,CCN(C(=O)Cn1c(=O)n2nc(CCn3nc(C)cc3C)nc2c2ccccc21)c1cccc(C)c1,-24.7
9,CC(C)NC(=O)[C@]1(C)CCC[C@@]2(C)C3CC[C@@]4(C)C[C@]3(CCC21)CC4=O (stereo partly drawn),6.23
10,CCCn1c(SCC(=O)Nc2ccc(C)c(S(=O)(=O)N3CCOCC3)c2)n[nH]c1=O,11
11,CCn1c(SCC(=O)c2c(N)n(C3CC3)c(=O)[nH]c2=O)nnc1-c1ccccc1OC,21.3
12,CN(C)C(=O)CSc1nc2ccc(N3C(=O)c4ccccc4C3=O)cc2s1,8.41
13,CCOC(=O)C1CCN(C(=O)Nc2ccc3c(c2)nc(C)n3C)CC1,0.694
14,COc1ccc(CNC(=O)C(c2ccncc2)N(C(=O)Cc2cccs2)c2ccccc2C)cc1 (stereo not drawn),-2.18
15,COC(=O)c1cn(C)c2ccc(S(=O)(=O)N3CCCC3)cc2c1=O,2.16
16,O=C(NCCc1ccc(Cl)cc1)C(=O)Nc1cc2c3c(c1)CC(=O)N3CCC2,-6.93
17,Cc1sc2ncnc(SCC(=O)NNC(=O)c3ccco3)c2c1C,4.49
18,O=c1cc(-c2ccc3c(c2)OCO3)oc2ccccc12,-3.3
19,CCCCCCCCCNC(=O)[C@H](NC(=O)COc1ccccc1)[C@@H]1NC(C(=O)OC)C(C)(C)S1 (stereo partly drawn),-0.969

row,Compound,"hERG current change (%, negative = inhibition) at 10uM [%]"
1,Cc1c(C#N)c2ccccc2n1CC(=O)N1CCCC1,8.41
2,O=C(Nc1ccc2ccccc2c1)N1CCCN(CCOc2ccccc2)CC1,-66
3,CC(C)CCn1cnc2c(oc3nc4c(cc32)CCCC4)c1=O,-16.6
4,C/C(=C\C(=O)c1ccc(Br)cc1)NCc1ccc(C)cc1,1.92
5,CCOC(=O)c1ccc(N2C(=O)C3CCOc4ccccc4C32)cc1 (stereo not drawn),12.1
6,CCc1nc(SCc2cccnc2)[nH]c(=O)c1C,22.3
7,CCC(C)NC(=O)C1(C)CCC(=O)N1CCc1ccc(OC)c(OC)c1 (stereo not drawn),-5.3
8,S=C(NCCc1cnc[nH]1)NC1CCCC1,23.2
9,Cc1ccsc1/C=C(\C(=O)c1ccc(OC(C)C)cc1)c1nc2ccccc2o1,19.2
10,O=C(NCCC1=CCCCC1)C1CCCN(S(=O)(=O)c2cccc3cccnc23)C1 (stereo not drawn),-34.1
11,COc1ccc(-n2ncc3c(=O)n(CC(=O)Nc4ccc(S(=O)(=O)N5CCOCC5)cc4)cnc32)cc1,-10.3
12,CN1C(=O)C(=O)N(CC(=O)N2CCc3ccccc32)C1=O,1.68
13,Clc1ccc(-c2ccc(SCc3ccccn3)nn2)cc1,2.07
14,CC(=O)COc1ccc2c(c1C)O/C(=C\c1ccco1)C2=O,6.17
15,CCOC(=O)CN1C(=O)C(O)(CC(=O)c2ccccn2)c2ccccc21 (stereo not drawn),14.6
16,Cc1ccc(C(=O)O/N=C/c2c(C)nn(C)c2Cl)cc1,-8.98
17,CN1CCN(C=NC2=NN(c3cccc(C(F)(F)F)c3)CC2)CC1,-23.9
18,CCn1cc(Cl)c(C(=O)Nc2ccc(OC)c(OC)c2)n1,11.2
19,COc1ccc(CN2CC(C(=O)NCCC(C)C)CC2=O)cc1 (stereo not drawn),10.5
